# In PubChem BioAssay AID588855 (National Center for Advancing Translational Sciences (NCATS), 2011):
# Screen size: about 410,000 compounds; about 5,000 (1.2%) were called active. The shares of active, inactive and inconclusive entries below differ from those in the screen. Calls come from the whole dose curve; as a rule, active = well fitted inhibition curve with a large enough effect; inconclusive = small, poorly fitted or top-dose-only effect; inactive = no such curve, though single readings can be large or run the other way. Potencies of inconclusive entries are doubtful fits and often do not repeat.
# Assay: qHTS for Inhibitors of TGF-b; note: nearly all actives have a fitted effect of over 65% in size
# Settings: HepG2 CAGA-GFP TGF-b/SMAD3 reporter, GFP fluorescence, 18 h, TGF-beta stimulated, 500 pg/mL final; series mostly up to 46.1 µM; activity, negative = inhibition: at the top concentration
# How it was run: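 First, reporter cells (HEPG2 CAGA-GFP) rested 2 h at 37 degrees C. Next, compounds were pinned in and TGF-beta added to 500 pg/mL final. After 18 h, GFP was imaged per cell and summed per well.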
# % is set by controls: 0 for no effect and ±100 for the full control effect; potency is the fitted concentration of half-maximal effect; tags give direction and shape of the fitted curve.
Compound,Potency,"activity, negative = inhibition"
COC(=O)c1ccc(CCc2cc(O)c(Br)cc2O)cc1,"inconclusive: 15.8 µM [inhibitor, single point]",
CCN(C(=O)/C=C/c1ccccc1)C1CCCCC1,,inactive: 7.39%
O=c1c2cc3c(cc2nc2sc(Nc4ccc(F)c(Cl)c4)nn12)OCO3,,inactive: 25.8%
CCOC(=O)C1=C(C)N=c2s/c(=C/c3cccc([N+](=O)[O-])c3O)c(=O)n2C1c1ccc(OC)cc1OC (centres undefined),,inactive: 7.24%
O=C(c1ccc(F)cc1Cl)N(Cc1ccco1)C1CCS(=O)(=O)C1 (centres undefined),,inactive: -10.8%
CC(OC(=O)c1n[nH]c2ccccc12)C(=O)Nc1ccccc1[N+](=O)[O-] (centres undefined),"inconclusive: 35.5 µM [inhibitor, single point]",
O=C(CN1C(=O)COc2ccc(S(=O)(=O)N3CCOCC3)cc21)NCc1ccc(F)cc1,,inactive: -0.224%
Clc1ccc(-n2c(SC/C=C/c3ccccc3)nnc2-c2cccnc2)cc1,"inconclusive: 35.5 µM [inhibitor, single point]",
O=C(NCCS(=O)(=O)N1CCCCC1)c1ccc2c(c1)OCO2,,inactive: -14.2%
Cc1ccc(-n2c(O)c(C=Nc3ccccc3-c3n[nH]c(=S)[nH]c3=O)c3ccccc3c2=O)c(C)c1,"inconclusive: 22.4 µM [inhibitor, single point]",
CC(C)CN1CCc2nc(N3CCN(C)CC3)ncc2C1,,inactive: 10.8%
COc1ccc(C(C(=O)NC2CCCCC2)N(C(=O)CCl)c2cccc(Cl)c2)cc1 (centres undefined),"inconclusive: 10 µM [inhibitor, partial curve]",
CCCCN([C@H](CO)C(C)C)S(=O)(=O)c1ccccc1Br,"inconclusive: 15.8 µM [inhibitor, partial curve, poor fit]",
O=C1C=CC(O)(c2cc(=O)c3c(O)cc(O)cc3o2)C=C1,active: 3.98 µM,
O=C(N/N=C/c1ccccn1)c1cc(-c2ccc(Br)cc2)nc2ccccc12,"inconclusive: 3.55 µM [inhibitor, single point]",
Cn1c(=O)[nH]c(=O)c2c1nc(Br)n2CCC(=O)c1ccccc1,,inactive: -8.57%
O=C(Nc1ccc(-c2csc(Nc3cccc(C(F)(F)F)c3)n2)cc1)c1ccccc1,"inconclusive: 14.1 µM [inhibitor, partial curve, poor fit]",
Cc1occc1C(=O)NNC(=O)Nc1ccc([N+](=O)[O-])cc1,,inactive: -9.03%
CCc1c(C)n([O-])c2c([n+]1=O)CCC2,"inconclusive: 5.62 µM [inhibitor, single point]",
COc1cc(NS(=O)(=O)c2ccc(N/C=C\C(=O)c3ccc(C)cc3)cc2)nc(OC)n1,"inconclusive: 7.08 µM [inhibitor, partial curve, poor fit]",
O=S1(=O)C2CC3C=CC2(O3)C(O)C(Cc2ccccc2)N1Cc1cccc(C(F)(F)F)c1 (centres undefined),"inconclusive: 35.5 µM [inhibitor, single point]",
Cc1oc(C(C)(C)C)cc1C(=O)N1CCN(C(c2ccccc2)c2ccccc2)CC1,"inconclusive: 35.5 µM [inhibitor, single point]",
O=C(CSc1nc2c(oc3ccccc32)c(=O)n1-c1ccccc1F)Nc1ccccc1,"inconclusive: 0.631 µM [inhibitor, full curve, poor fit]",

Compound,Potency,"activity, negative = inhibition"
CNc1ccc(Br)cc(C(=O)/C=C/c2ccc3c(c2)OCO3)c1=O,"inconclusive: 35.5 µM [inhibitor, single point]",
COCCN(C(=O)COC(=O)C1CC1C)c1c(N)n(Cc2ccccc2)c(=O)[nH]c1=O (centres undefined),"inconclusive: 11.2 µM [inhibitor, partial curve, poor fit]",
S=c1[nH]nc(CNc2ccc(Cl)cc2)n1Cc1ccccc1,"inconclusive: 2.24 µM [inhibitor, partial curve]",
c1ccc(-c2nc(N3CCCCC3)nc3ccccc23)cc1,"inconclusive: 35.5 µM [inhibitor, single point]",
c1ccc(CSc2nnc(-c3c[nH]c4ccccc34)o2)cc1,"inconclusive: 35.5 µM [inhibitor, single point]",
Cc1ccc(NS(=O)(=O)c2c(C(=O)N3CCC(C)CC3)c(C)n(C)c2C)cc1Cl,,inactive: -23.7%
COc1ccc(-c2cc(C(=O)N(C)Cc3nc4ccccc4c(=O)[nH]3)c3ccccc3n2)cc1OC,,inactive: 1.67%
CC(=O)c1ccc(NS(=O)(=O)c2ccc(N/C=C/C(=O)c3ccc(F)cc3)cc2)cc1,"inconclusive: 14.1 µM [inhibitor, partial curve]",
O=C1NC(c2cccc(Cl)c2)Oc2ccccc21 (centres undefined),,inactive: -1.18%
Cc1ccc(Cc2c(C)c(C#N)c3[nH]c4ccccc4n3c2=O)cc1,"inconclusive: 2 µM [inhibitor, full curve]",
COc1ccc(Cl)cc1S(=O)(=O)NC(C)C(=O)NCc1cccnc1 (centres undefined),,inactive: 7.29%
CC(C)c1ccc(C(C(=O)NC2CCCC2)N(C(=O)c2csnn2)C2CC2)cc1 (centres undefined),,inactive: 2.51%
Cc1ccc(S(=O)(=O)/N=C2\C(=O)c3ccccc3C([O-])=C2n2cc[n+](CCC(C)C)c2)cc1,active: 3.98 µM,
COc1ccc(C(C)(C)C)cc1NS(=O)(=O)c1cccc2cccnc12,"inconclusive: 35.5 µM [inhibitor, single point]",
COC(=O)c1ccc(OCCN2C3=NCCN3c3ccccc32)cc1,,inactive: 1.29%
CCCCC(CC)CNC(=O)C1CCN(S(=O)(=O)c2cccc3nsnc23)CC1 (centres undefined),"inconclusive: 3.16 µM [inhibitor, single point]",
O=C(C1=C[C@H](C2CCCCC2)C[C@H](OCCCCO)O1)N1CCN(Cc2ccccc2)CC1,"inconclusive: 1.26 µM [inhibitor, partial curve, poor fit]",
CC(C)(C)CC(C)(C)NC(=O)Nc1cccc([N+](=O)[O-])c1,"inconclusive: 17.8 µM [inhibitor, partial curve, poor fit]",
N#C/C(=C\c1cccc([N+](=O)[O-])c1)c1nnc2n1CCCCC2,,inactive: 3.5%
ONC(=Nc1ccccc1Cl)c1c(F)cccc1F,,inactive: -21.4%
COc1ccc(NC(=O)CC2CCCC2)cc1S(=O)(=O)N1CCCCC1,,inactive: -4.26%
Cc1ccccc1S(=O)(=O)NC(=O)C1(C)CCN1C(=O)CC(c1ccccc1)c1ccccc1 (centres undefined),"inconclusive: 12.6 µM [inhibitor, partial curve, poor fit]",
COc1ccc(C(CNC(=O)c2cc3c(s2)CCC(C)C3)N2CCCC2)cc1 (centres undefined),,inactive: -23.6%

Compound,Potency,"activity, negative = inhibition"
CN(Cc1ccccc1)C(=O)Cn1nnc(-c2ccccc2)c1COc1ccc2ccccc2c1,,inactive: -15.4%
CCn1c(COC(=O)CNC(=O)c2ccccc2F)nc2cc(S(=O)(=O)N(C)C)ccc21,,inactive: 1.04%
COc1cc(C)nc(N2CCCC(C(=O)Nc3cc(Cl)ccc3OC)C2)n1 (centres undefined),"inconclusive: 35.5 µM [inhibitor, single point]",
O=C(NCc1ccc(F)cc1)c1cc(C2CCCCN2C(=O)c2ccc3c(c2)CCO3)on1 (centres undefined),,inactive: -9.33%
Cc1ccc(OS(=O)Nc2cccc3nccnc23)cc1 (centres undefined),"inconclusive: 35.5 µM [inhibitor, single point]",
O=C(NC(=S)NC1CCCCC1)c1ccc(Cl)cc1,"inconclusive: 3.16 µM [inhibitor, partial curve, poor fit]",
COc1ccccc1NC(=O)c1ccc(SCC(=O)NCc2ccccc2Cl)c([N+](=O)[O-])c1,,inactive: 2.22%
FC(F)Oc1ccc(NC(=S)Nn2cnnc2)cc1,active: 15.8 µM,
CCOc1ccc2nc(C)cc(Nc3ccccc3OCC)c2c1,"inconclusive: 35.5 µM [inhibitor, single point]",
CCc1ccc(OC2=NS(=O)(=O)c3ccccc32)cc1,,inactive: -26%
CCOC(=O)CSc1nc2c(sc3ccccc32)c(=O)n1CCc1ccccc1,"inconclusive: 15.8 µM [inhibitor, single point]",
Cn1cc(S(=O)(=O)N2CCCCCC2)cc1C(=O)N1CCN(c2cccc(Cl)c2)CC1,"inconclusive: 15.8 µM [inhibitor, single point]",
COCCNC(=S)N1CCC2CC1c1cc(-c3ccc4c(c3)OCO4)ccc12 (centres undefined),"inconclusive: 11.2 µM [inhibitor, partial curve, poor fit]",
Cc1ccc(CNC(=O)CS(=O)Cc2nc(-c3ccccc3Cl)oc2C)cc1 (centres undefined),"inconclusive: 11.2 µM [inhibitor, partial curve, poor fit]",
CN(Cc1ccccc1)C(=O)c1cccc(NC(=O)c2ccco2)c1,"inconclusive: 35.5 µM [inhibitor, single point]",
CCOC(=O)C1CCN(C(=O)C2CCN(C3=NS(=O)(=O)C(c4ccc(C)cc4)=C3CC)CC2)CC1,"inconclusive: 8.91 µM [inhibitor, partial curve]",
COc1ccc(C(NC(=O)C2CCN(CCc3ccccc3)CC2)c2ccccn2)cc1 (centres undefined),,inactive: 10.5%
CCC(C)NC(=O)CSc1nc2c(sc(=S)n2Cc2ccco2)c(=O)n1-c1ccccc1 (centres undefined),"inconclusive: 35.5 µM [inhibitor, single point]",
Cc1cccnc1Nc1nc(-c2ccc(O)cc2O)cs1,"inconclusive: 35.5 µM [inhibitor, single point]",
O=[N+]([O-])c1ccc(N/N=C/c2ccccc2O)cc1,"inconclusive: 35.5 µM [inhibitor, partial curve, poor fit]",
C[C@@H](NC(=O)c1[nH]cnc1C(=O)Nc1ccccc1F)c1ccccc1,"inconclusive: 12.6 µM [inhibitor, single point]",
Cc1cc(=O)oc2c1ccc1oc(/C(=N/O)c3ccccc3)c(C)c12,"inconclusive: 20 µM [inhibitor, single point]",
Cc1ccsc1C1CC(=O)NC2=C1C(=O)CC(C)(C)C2 (centres undefined),"inconclusive: 2.24 µM [inhibitor, partial curve, poor fit]",
